Whole data set: some 2,800 compounds, median “cell viability relative to vehicle” near 0.98, cut for the lowest 2% near 0.45. Some of the results follow.

Among the data in the supplement of paper PMC10600219 are cell viability values, retold here.

This assay relates to NCI-H2228 alectinib-DTP. Briefly: cell viability relative to vehicle (fraction of vehicle); NCI-H2228 is an ALK-positive lung cancer line and DTP means drug-tolerant persister; higher = less growth inhibition. The conditions noted are these: 100 nM; treatment time 6 days. The method in brief:
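The 3114-agent TargetMol anti-cancer compound library was tested at 100 nM for 6 days on parental NCI-H2228 cells and on persister cells derived with 1000 nM of a targeted drug for 13 days. ATP readout by the CellTiter-Glo 3D Cell Viability Assay gave cell viability relative to DMSO vehicle-treated cells.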
`CC[C@H](C)n1cc(C)c2c(C(=O)NCc3c(C)cc(C)[nH]c3=O)cc(-c3ccc(N4CCNCC4)nc3)cc21` came in with a cell viability of 1.13. With `Nc1cccc(S(=O)(=O)N2CCCN(S(=O)(=O)c3ccc4c(c3)OCCO4)CC2)c1`, the cell viability is 1.05. The same measure for `OCC1(O)COc2cc(O)ccc2-c2cc(O)c(O)cc2C1` (stereo not drawn) [Protosappanin B]: 1.06; for `CC[C@@]1(O)C(=O)OCc2c1cc1n(c2=O)Cc2cc3cc(O)ccc3nc2-1` [10-Hydroxycamptothecin]: 0.304. For `CC[C@@]1(O)C(=O)OCc2c1cc1n(c2=O)Cc2cc3cc(O)ccc3nc2-1` [Hydroxy Camptothecine] the value was 0.255.

`CN1CCN(CCCNc2ncc(Cl)c(-c3cc4c(C(=O)NC5CC5)cccc4s3)n2)CC1` showed a cell viability of 0.958. The same measure for `CCCCCCCCCCCCCCCCCC(=O)O` [Stearic acid]: 0.881; for `CC(C)CCN1c2nc(Nc3cc(F)c(O)c(F)c3)ncc2N(C)C(=O)C1C` (stereo not drawn): 0.91. The same measure for `O=C1NC(=O)/C(=C/c2ccc(-c3ccc(F)cc3O)o2)S1`: 0.967; for `Cc1cnc(Nc2ccc(N3CCN(C)CC3)cc2)nc1Nc1cccc(S(=O)(=O)NC(C)(C)C)c1`: 0.784. In turn, `O=C1C(CC[S+]([O-])c2ccccc2)C(=O)N(c2ccccc2)N1c1ccccc1` (stereo not drawn) [Sulfinpyrazone] gave a cell viability of 1.18.

On to `NS(=O)(=O)c1cc2c(cc1Cl)N=C(CSCc1ccccc1)NS2(=O)=O` [Benzthiazide], for which the cell viability was determined as 1.19. For `CC(=O)OC/C=C(C)/C=C/C=C(C)/C=C/C1=C(C)CCCC1(C)C` [Retinyl acetate] the value was 1.07. For `CCCC(C)NC(=O)c1ccc(Cl)c(Cl)c1` (stereo not drawn) the value was 1.07; for `Nc1ccc(S(=O)(=O)Nc2ncccn2)cc1` [Sulfadiazine], 0.913; for `NC(=O)c1ccc2nc(-c3ccc(Oc4ccc(Cl)cc4)cc3)[nH]c2c1`, 1.01.

Turning to `CNC1CCC(N(Cc2cccc(-c3ccncc3)c2)C(=O)c2sc3ccccc3c2Cl)CC1` (stereo not drawn), the cell viability was found to be 1.08.

The molecule `Oc1cc(-c2nc(-c3ccccc3)[nH]c2-c2ccncc2)ccc1Cl` returned a cell viability of 1.22. `CC(C)[C@H](C(=O)Nc1ccc(C(=O)NO)cc1)c1ccccc1` returned a cell viability of 0.801. The same measure for `C#C[C@]1(OC(C)=O)CC[C@H]2[C@@H]3CCC4=C[C@@H](OC(C)=O)CC[C@@H]4[C@H]3CC[C@@]21C` [Ethynodiol diacetate]: 0.946; for `C#C[C@]1(O)CC[C@H]2[C@@H]3CCC4=CC(=O)CC[C@@H]4[C@H]3CC[C@@]21C` [Norethindrone]: 0.815. For `O=C(NC[C@H](O)CN1CCc2ccccc2C1)c1ccnc(NC2CCC2)c1` the value was 0.816; for `COc1ccc(C(=O)N2CCN(c3ccc4c(c3)CCC(=O)N4)CC2)cc1OC` [Vesnarinone], 1.02.
